Assay results published in the supplement of paper PMC3334620.
In all, about 33,000 sequences were measured (“E-score (-0.5 to 0.5)”: median about -0.036, highest 2% from about 0.37 on). The list shows a part of the results.

Molecular target: T1, Yer064c (UniProt P40041)
T1 sequence: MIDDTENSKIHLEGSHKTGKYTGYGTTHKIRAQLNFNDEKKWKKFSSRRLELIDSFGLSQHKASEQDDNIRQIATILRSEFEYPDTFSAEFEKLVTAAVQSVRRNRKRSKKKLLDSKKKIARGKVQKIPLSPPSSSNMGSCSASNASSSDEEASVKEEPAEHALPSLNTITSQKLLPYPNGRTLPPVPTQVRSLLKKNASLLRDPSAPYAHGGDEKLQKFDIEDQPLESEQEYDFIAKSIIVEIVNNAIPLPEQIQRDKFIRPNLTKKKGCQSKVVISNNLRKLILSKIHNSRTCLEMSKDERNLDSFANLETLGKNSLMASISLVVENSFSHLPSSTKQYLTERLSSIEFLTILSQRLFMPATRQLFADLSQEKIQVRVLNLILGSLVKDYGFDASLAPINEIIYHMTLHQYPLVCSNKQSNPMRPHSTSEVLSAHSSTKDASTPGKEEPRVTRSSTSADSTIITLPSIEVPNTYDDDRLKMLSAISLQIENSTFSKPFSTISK
Assay: PBM E-score (8-mer binding enrichment) (E-score (-0.5 to 0.5)); higher = stronger / more preferred TF binding; most listed sequences are background and not binding sites
Conditions: protein concentration: 200 nM; construct: GST-full length
Outline: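 Bound GST-tagged yeast transcription factors, applied at about 100-200 nM to double-stranded universal all-10-mer Agilent arrays, were detected with fluorescent anti-GST. Scans were normalised with masliner. A modified Wilcoxon-Mann-Whitney statistic, the E-score, was assigned to each ungapped eight-base word pooled with its reverse complement by the Universal PBM Analysis Suite.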

Row | Sequence | PBM E-score
1 | ACGGCAGG | -0.188
2 | ATTTACTA | 0.181
3 | GTATATGA | 0.189
4 | ATTTTTCG | 0.00581
5 | GGGTTCAA | -0.0488
6 | CCGGATAA | -0.0102
7 | GTTGGAGA | -0.0135
8 | CTCTCCCA | -0.0696
9 | AGAGTAAC | -0.00742
10 | ACGATAGG | -0.256
11 | TCAACTAA | 0.272
12 | GACGTTAA | 0.0734
13 | GTCTGGCA | -0.0983
14 | AACTTAGG | 0.0629
15 | GGGTGCGA | -0.211
16 | AGGTGTCA | 0.0196
17 | TGTTCAAA | 0.146
18 | CCGAAAAA | 0.0649
19 | CCATACAA | -0.0905
20 | AAAAATCA | 0.248
21 | GTTCAGGA | -0.0283
22 | GAGACGAC | 0.104
23 | CAAATTAC | -0.126
24 | CTTAGGAA | 0.172
25 | CACTTTCC | -0.169

Row | Sequence | PBM E-score
26 | ACCCGAAG | -0.106
27 | GCGTTAGC | -0.14
28 | ACCGTAGT | 0.0918
29 | TGTGTAAA | 0.187
30 | CAATCACA | 0.346
31 | ATGAATTC | 0.0747
32 | AAACCCAA | -0.0274
33 | AACAATCA | 0.327
34 | ATCATAGG | 0.27
35 | ACTCCCCG | 0.185
36 | AATTGCCG | -0.0553
37 | GGCGGACA | -0.28
38 | GCCAGTTA | -0.0971
39 | CTTAAATA | -0.0273
40 | CGACCCTA | -0.0957
41 | AGTCGTAT | 0.379
42 | GGTGACCA | 0.0718
43 | CCGATGCG | -0.223
44 | GGCTTGGA | -0.205
45 | CGGTACGA | -0.0482
46 | ACCCATTA | 0.13
47 | GTGCTTGA | 0.0544
48 | CGAACACG | 0.0247
49 | CCCACGCG | -0.157
50 | CAAGTGTG | 0.0948

Row | Sequence | PBM E-score
51 | AAGGGGCT | -0.138
52 | GCGTATCC | -0.0378
53 | CGAAGTCG | 0.286
54 | ACCATAGG | 0.0693
55 | AATAAAAA | 0.109
56 | GAGTTAGA | 0.0494
57 | GATGGTAA | -0.0359
58 | GATTATCA | 0.269
59 | AGTTGGCG | 0.00403
60 | GACAGAGA | -0.0807
61 | CGACGTCG | 0.00223
62 | CGAAGCCG | -0.198
63 | ACATGCTA | -0.181
64 | GGTAATAA | 0.0221
65 | AGAGTCAA | 0.436
66 | AGCAATAT | 0.145
67 | CTAATTAC | 0.101
68 | AGGTAGCA | -0.322
69 | ATGTACGG | -0.179
70 | CTTGTGGA | -0.174
71 | CATGGGAA | -0.155
72 | AAGGAGAC | 0.169
73 | CGCGTTTA | -0.0154
74 | ACGGCCGC | -0.0196
75 | GGAAGGGA | -0.163

Row | Sequence | PBM E-score
76 | GGAGGTTA | 0.0556
77 | AGAAGGGA | -0.186
78 | AAACAACT | -0.0707
79 | GTATATCA | 0.0544
80 | GCCGAGCA | -0.188
81 | AAAGAGGA | -0.125
82 | CACCTCCC | -0.0848
83 | CGGTCAGC | -0.189
84 | AAATTAGC | 0.0202
85 | TTCTGAAA | -0.01
86 | GACGTCTA | 0.0755
87 | ACAACCGG | -0.183
88 | CATTTGCC | -0.215
89 | ATACTGTA | -0.0513
90 | AGGCGCAC | -0.213
91 | CGAGTACC | 0.109
92 | AATGATAC | 0.118
93 | CACTTCAA | -0.0203
94 | CGCCCTTA | -0.0857
95 | CACTGATC | 0.0611
96 | CCTGAAAC | -0.0495
97 | CTTTACCC | 0.105
98 | CATATTCA | 0.111
99 | AGGGTGAA | 0.00212
100 | CGGCATGA | 0.216

Row | Sequence | PBM E-score
101 | CCCTGCTC | -0.186
102 | CTGCGTGC | -0.164
103 | GGAGACCA | -0.176
104 | CTCTAGGC | -0.058
105 | CCGGACGG | -0.0787
106 | CGTAGAAG | 0.0118
107 | GGTTTGAC | 0.122
108 | ATACGTGG | -0.11
109 | TAAATCCA | 0.0243
110 | ATATCTGG | -0.0892
111 | ACTACGAC | 0.302
112 | CTTCATTC | -0.116
113 | CTCCGCAG | 0.00319
114 | CTCGCTCA | 0.141
115 | GCATATAA | 0.143
116 | CACATTGC | -0.0307
117 | CTGCCTTA | -0.099
118 | ATCGGATA | 0.0451
119 | CGTGATCC | -0.251
120 | CACCCTAC | 0.127
121 | CTGGCGCC | -0.331
122 | CCCTAAAG | -0.281
123 | CGGGGAGA | -0.194
124 | CTGAGCTC | 0.0384
125 | AAGCAAGG | -0.116

Row | Sequence | PBM E-score
126 | TACCAGGA | -0.0353
127 | AACCTCAG | 0.0375
128 | TAAAGTCA | 0.413
129 | ATGTAGCA | -0.146
130 | AGAATCGG | -0.0288
131 | CAAGGCCC | -0.192
132 | ACTATATG | 0.182
133 | TTAGTGAA | 0.178
134 | CAAAAGAC | 0.157
135 | GATGCCCA | -0.177
136 | GAGGATGC | -0.231
137 | TATTGCAA | 0.00227
138 | CGCAAAAG | -0.0492
139 | CGTACCTA | -0.123
140 | CATATCCC | -0.0652
141 | CGACTCAC | 0.468
142 | AGGGGAAT | -0.0928
143 | GGAAGCAC | -0.0925
144 | CTTAGAGA | 0.0855
145 | CTAGAGAA | 0.0635
146 | CCCCTTCC | -0.186
147 | ACTAAAGG | 0.261
148 | ATTCACAA | 0.135
149 | GAATGGGC | -0.247
150 | CGCACGCG | -0.213

Row | Sequence | PBM E-score
151 | CAGAGCAC | -0.102
152 | GATCTGGC | -0.202
153 | GGGGGCAC | -0.338
154 | ATCGGTGG | -0.2
155 | ATCCGATG | 0.115
156 | ACCCATCA | 0.219
157 | AGGGCCCA | -0.225
158 | AACTGGCT | -0.28
159 | AGAGCGGG | -0.142
160 | CGAAGGCC | -0.358
161 | AAAAGGCG | -0.251
162 | GATAAGGC | -0.155
163 | AATAAATC | -0.0502
164 | CCTAATCC | -0.33
165 | GAGTTGAA | 0.0253
166 | CATACGAA | -0.0411
167 | CTTCCCGC | -0.123
168 | GTCCCCTA | -0.27
169 | AGTGAACT | 0.0503
170 | ACGTCGCT | -0.0775
171 | CCATAAGG | -0.121
172 | TAAGGTCA | 0.032
